According to US11207320B2, “Compositions and methods for cancer expressing PDE3A or SLFN12” (The Broad Institute, Inc., priority 2015, dated 2021):
The source gives many values for each of these; only a part stands here.

System: 766 cancer cell lines
Assay: Large-scale cell-line viability measurements (766 cancer cell lines, 72 h, AUC)
Type: cell-based, human
Procedure: Cell lines were treated for 72 hours with concentrations ranging from 66.4 μM-2 nM in 2-fold step dilutions.
To characterize cellular sensitivity to DNMDP further, 766 genomically characterized cancer cell lines were screened for DMNDP sensitivity at concentrations ranging from 66.4 μM to 2 nM in 2-fold dilution steps for 72 hours. From these cell lines, 22 cell lines were categorized as sensitive with a robust Z-score lower than −4, which represented multiple lineages including multiple melanoma cell lines, amongst others (Table 1).
The sensitivity of […] cancer cell lines (CCLs) was measured drawn from 23 different lineages to DNMDP. Each cell line was plated in its preferred media in white opaque 1536-plates at a density of 500 cells/well. After incubating overnight, DNMDP was added by acoustic transfer at 16 concentrations ranging from 66.4 μM-2 nM in 2-fold steps in duplicate (Labcyte Echo 555, Labcyte Inc., Sunnyvale, Calif.). After 72 hours treatment, cellular ATP levels were measured as a surrogate for viability (CELLTITERGLO®, Promega Corporation, Madison, Wis.) according to manufacturer's protocols using a ViewLux Microplate Imager (PerkinElmer, Waltham, Mass.) and normalized to background (media-only) and vehicle (DMSO)-treated control wells.
Concentration response curves were fit using nonlinear fits to 2- or 3-parameter sigmoid functions through all 16 concentrations with the low-concentration asymptote set to the DMSO-normalized value, and an optimal 8-point dose curve spanning the range of compound-sensitivity was identified. The area under the 8-point dose curve (AUC) was computed by numeric integration as a metric for sensitivity for further analysis. Similar sensitivity measurements have been obtained for a collection of 480 other compounds, enabling analyses that identify cell lines responding uniquely to DNMDP (see Broad Institute Cancer Therapeutics Response Portal, a dataset to identify comprehensively relationships between genetic and lineage features of human cancer cell lines and small-molecule sensitivities for complete list of compounds).

[1] = cell line JVM3, HAEMATOPOIETIC AND LYMPHOID TISSUE, 72 hours
[2] = cell line K562 (HAEMATOPOIETIC AND LYMPHOID TISSUE)
[3] = cell line KARPAS422, HAEMATOPOIETIC AND LYMPHOID TISSUE, 72 hours
[4] = cell line KARPAS620 (HAEMATOPOIETIC AND LYMPHOID TISSUE)
[5] = cell line KASUMI1 (HAEMATOPOIETIC AND LYMPHOID TISSUE)
[6] = cell line KE37, HAEMATOPOIETIC AND LYMPHOID TISSUE, 72 hours
[7] = cell line KE97, HAEMATOPOIETIC AND LYMPHOID TISSUE, 72 hours
[8] = cell line KELLY (AUTONOMIC GANGLIA)
[9] = cell line KG1C, CENTRAL NERVOUS SYSTEM, 72 hours
[10] = cell line KM12 (LARGE INTESTINE)
[11] = cell line KMBC2 (URINARY TRACT)
[12] = cell line KMH2 (HAEMATOPOIETIC AND LYMPHOID TISSUE)
[13] = cell line KMS21BM, HAEMATOPOIETIC AND LYMPHOID TISSUE, 72 hours
[14] = cell line KMS26 (HAEMATOPOIETIC AND LYMPHOID TISSUE)
[15] = cell line KNS81 (CENTRAL NERVOUS SYSTEM)
[16] = cell line KPL1, BREAST, 72 hours
[17] = cell line KU812 (HAEMATOPOIETIC AND LYMPHOID TISSUE)
[18] = cell line KU1919 (URINARY TRACT)
[19] = cell line KYM1, SOFT TISSUE, 72 hours
[20] = cell line KYO1, HAEMATOPOIETIC AND LYMPHOID TISSUE, 72 hours
[21] = cell line L363 (HAEMATOPOIETIC AND LYMPHOID TISSUE)
[22] = cell line L428 (HAEMATOPOIETIC AND LYMPHOID TISSUE)
[23] = cell line LCLC97TM1, LUNG, 72 hours
[24] = cell line LN18 (CENTRAL NERVOUS SYSTEM)

CCN(CC)c1ccc(C2=NNC(=O)CC2C)cc1[N+](=O)[O-] (centres unmarked) [DNMDP, 6-(4-(diethylamino)-3-nitrophenyl)-5-methyl-4,5-dihydropyridazin-3(2H)-one]
Robust Z-score (cell line JURLMK1, HAEMATOPOIETIC AND LYMPHOID TISSUE, 72 hours): 1.551
DNMDP AUC [1]: 7.961
Robust Z-score [1]: 1.392
DNMDP AUC [2]: 6.7319
Robust Z-score [2]: 0.1021
DNMDP AUC [3]: 7.2487
Robust Z-score [3]: 0.6445
DNMDP AUC [4]: 6.5931
Robust Z-score [4]: −0.04361
DNMDP AUC [5]: 6.8439
Robust Z-score [5]: 0.2196
DNMDP AUC [6]: 8.1163
Robust Z-score [6]: 1.555
DNMDP AUC (cell line KE39 (STOMACH)): 6.9103
Robust Z-score (cell line KE39 (STOMACH)): 0.2893
DNMDP AUC [7]: 7.1187
Robust Z-score [7]: 0.5081
DNMDP AUC [8]: 6.9352
Robust Z-score [8]: 0.3155
DNMDP AUC [9]: 7.238
Robust Z-score [9]: 0.6333
DNMDP AUC (cell line KLE (ENDOMETRIUM)): 6.9584
Robust Z-score (cell line KLE (ENDOMETRIUM)): 0.3398
DNMDP AUC [10]: 7.0792
Robust Z-score [10]: 0.4666
DNMDP AUC [11]: 6.7837
Robust Z-score [11]: 0.1565
DNMDP AUC [12]: 6.7155
Robust Z-score [12]: 0.08486
DNMDP AUC (cell line KMRC1 (KIDNEY)): 6.8362
Robust Z-score (cell line KMRC1 (KIDNEY)): 0.2116
DNMDP AUC [13]: 8.3309
Robust Z-score [13]: 1.78
DNMDP AUC [14]: 6.5778
Robust Z-score [14]: −0.05967
DNMDP AUC (cell line KNS62 (LUNG)): 7.0253
Robust Z-score (cell line KNS62 (LUNG)): 0.41
DNMDP AUC [15]: 6.7793
Robust Z-score [15]: 0.1518
DNMDP AUC (cell line KP3 (PANCREAS)): 6.909
Robust Z-score (cell line KP3 (PANCREAS)): 0.288
DNMDP AUC (cell line KP4 (PANCREAS)): 6.7102
Robust Z-score (cell line KP4 (PANCREAS)): 0.0793
DNMDP AUC [16]: 7.1178
Robust Z-score [16]: 0.5071
DNMDP AUC [17]: 6.8063
Robust Z-score [17]: 0.1802
DNMDP AUC [18]: 6.8061
Robust Z-score [18]: 0.18
DNMDP AUC [19]: 8.4417
Robust Z-score [19]: 1.897
DNMDP AUC [20]: 7.1048
Robust Z-score [20]: 0.4935
DNMDP AUC (cell line KYSE30 (OESOPHAGUS)): 6.8825
Robust Z-score (cell line KYSE30 (OESOPHAGUS)): 0.2602
DNMDP AUC (cell line KYSE70 (OESOPHAGUS)): 6.7428
Robust Z-score (cell line KYSE70 (OESOPHAGUS)): 0.1135
DNMDP AUC (cell line KYSE140 (OESOPHAGUS)): 6.836
Robust Z-score (cell line KYSE140 (OESOPHAGUS)): 0.2113
DNMDP AUC (cell line KYSE150 (OESOPHAGUS)): 7.0859
Robust Z-score (cell line KYSE150 (OESOPHAGUS)): 0.4737
DNMDP AUC (cell line KYSE180 (OESOPHAGUS)): 7.0541
Robust Z-score (cell line KYSE180 (OESOPHAGUS)): 0.4403
DNMDP AUC (cell line KYSE450 (OESOPHAGUS)): 6.6505
Robust Z-score (cell line KYSE450 (OESOPHAGUS)): 0.01664
DNMDP AUC (cell line KYSE510 (OESOPHAGUS)): 6.9987
Robust Z-score (cell line KYSE510 (OESOPHAGUS)): 0.3821
DNMDP AUC (cell line KYSE520 (OESOPHAGUS)): 6.8305
Robust Z-score (cell line KYSE520 (OESOPHAGUS)): 0.2056
DNMDP AUC [21]: 7.0473
Robust Z-score [21]: 0.4331
DNMDP AUC [22]: 6.5828
Robust Z-score [22]: −0.05442
DNMDP AUC (cell line LC1SQSF (LUNG)): 6.8361
Robust Z-score (cell line LC1SQSF (LUNG)): 0.2115
DNMDP AUC [23]: 7.2086
Robust Z-score [23]: 0.6024
DNMDP AUC (cell line LCLC103H (LUNG)): 6.7269
Robust Z-score (cell line LCLC103H (LUNG)): 0.09683
DNMDP AUC (cell line LK2 (LUNG)): 6.8724
Robust Z-score (cell line LK2 (LUNG)): 0.2496
DNMDP AUC [24]: 6.6106
Robust Z-score [24]: −0.02524
